Reference: article PMC4336329 (PLoS ONE, 2015)
Hit rate of the full screen: of about 310,000 compounds, about 14,000 (4.5%) showed an effect of 50% or more. Effects have a minus sign here. Some of the results follow.

biological target: human ether-à-go-go-related gene (hERG) potassium channel (human, UniProt Q12809); experiment: primary screen, population patch clamp on CHO cells stably expressing hERG
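Further: peak tail current of the secondary pulse compared with the same well before compound.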

human ether-à-go-go-related gene (hERG) potassium channel, sequence (Q12809 whole entry, looked up): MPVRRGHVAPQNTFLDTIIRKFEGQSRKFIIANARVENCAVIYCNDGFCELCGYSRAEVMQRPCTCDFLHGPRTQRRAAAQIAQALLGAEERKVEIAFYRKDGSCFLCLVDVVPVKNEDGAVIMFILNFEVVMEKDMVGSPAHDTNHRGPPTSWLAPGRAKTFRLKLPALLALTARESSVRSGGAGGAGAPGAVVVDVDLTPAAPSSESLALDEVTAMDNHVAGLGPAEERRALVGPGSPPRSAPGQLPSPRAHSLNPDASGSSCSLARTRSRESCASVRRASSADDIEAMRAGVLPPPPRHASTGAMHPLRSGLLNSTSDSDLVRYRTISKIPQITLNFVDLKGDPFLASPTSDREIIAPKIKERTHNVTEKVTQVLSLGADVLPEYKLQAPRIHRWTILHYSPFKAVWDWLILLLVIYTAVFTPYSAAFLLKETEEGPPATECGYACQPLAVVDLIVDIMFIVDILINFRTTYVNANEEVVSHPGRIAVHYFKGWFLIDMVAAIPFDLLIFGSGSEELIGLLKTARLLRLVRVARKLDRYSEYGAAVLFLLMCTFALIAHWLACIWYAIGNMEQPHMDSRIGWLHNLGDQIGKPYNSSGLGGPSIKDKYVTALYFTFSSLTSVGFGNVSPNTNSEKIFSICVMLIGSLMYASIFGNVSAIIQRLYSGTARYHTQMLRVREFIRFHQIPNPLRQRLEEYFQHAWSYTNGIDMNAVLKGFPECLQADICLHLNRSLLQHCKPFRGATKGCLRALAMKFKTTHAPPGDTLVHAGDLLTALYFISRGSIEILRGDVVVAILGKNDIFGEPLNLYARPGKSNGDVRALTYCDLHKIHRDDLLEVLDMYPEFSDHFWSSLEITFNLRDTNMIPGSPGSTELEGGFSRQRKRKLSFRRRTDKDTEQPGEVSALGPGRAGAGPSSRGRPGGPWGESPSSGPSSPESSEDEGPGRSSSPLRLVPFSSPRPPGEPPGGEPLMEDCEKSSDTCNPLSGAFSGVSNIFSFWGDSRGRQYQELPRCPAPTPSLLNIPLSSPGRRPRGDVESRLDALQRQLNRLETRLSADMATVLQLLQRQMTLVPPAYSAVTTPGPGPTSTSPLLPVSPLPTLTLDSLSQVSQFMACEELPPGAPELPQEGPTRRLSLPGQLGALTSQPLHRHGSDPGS

| Structure (SMILES) | hERG current change (%, negative = inhibition) at 10uM |
| --- | --- |
| Cc1ccc(S(=O)(=O)N2CCN(C(C)C(=O)N3CCCc4ccccc43)CC2)cc1 (stereo not shown) | -18.9% |
| Cc1ccc(-c2nc(N3CCOCC3)sc2C(=O)N2CCOCC2)cc1 | -4.14% |
| CCN1C(=O)c2cccc3c(NC(=O)C(C)(C)C)ccc1c23 | 1.71% |
| CC1(c2ccccc2)NC(=O)N(CC(=O)Nc2ccccc2C(=O)NC2CC2)C1=O (stereo not shown) | -22.5% |
| CC(C)(C)c1ccc(C(=O)Nc2ccc(C(=O)N3CCOCC3)cc2)cc1 | -20.6% |
| C/C=C/CSc1nc2c(c(=O)[nH]c(=O)n2C)n1CCC | -24.6% |
| O=C(NCCN1CCCCCC1)c1ccc(N2CCCC2=O)cc1 | -11% |
| COCCCNC(=O)Cn1nnc(-c2ccc(NC(=O)c3ccccc3OC)cc2)n1 | 6.89% |
| COc1ccc(Br)cc1S(=O)(=O)N(CC(=O)N1CCN(C)CC1)c1ccccc1 | -22.6% |
| COc1c(C)cc(C(=O)C2CCCN(Cc3cccc(O)c3)C2)cc1C (stereo not shown) | -23.9% |
| CN(CCc1cnn(C)c1)Cc1nc(Cc2ccccc2)no1 | 11.7% |
| Cc1cc(C)n(/N=C/c2cccc([N+](=O)[O-])c2)c(=O)c1 | 1.68% |
| CC(C)Oc1ccc(C(=O)N/N=C/c2ccc(-c3ccc(S(=O)(=O)Nc4ncccn4)cc3)o2)cc1 | 9.83% |
| CC1=C(C(=O)NC2CCCCC2C)C2(CCC(C)CC2)OC1=O (stereo not shown) | -12.4% |
| CCCCOc1ccc(C(=O)C(CN2CCOCC2)c2ccccc2)cc1 (stereo not shown) | -1.42% |
| O=C(CCCN1C(=O)c2ccccc2C1=O)N1CCC(c2ccccc2)C1 (stereo not shown) | -58.6% |
| O=C(NCC1CCCO1)c1cc2c([nH]c3ccccc32)c(-c2ccc(F)cc2)n1 (stereo not shown) | -3.16% |
| COc1c(C)cc(Br)cc1C(=O)Nc1cccc(-c2nc3ncccc3o2)c1 | -7.52% |
| Cc1cccc(-c2noc(C(C)NC(=O)c3ccco3)n2)c1 (stereo not shown) | -11.3% |
| Cc1ccc(-n2c(SCC(N)=O)nnc2-c2ccccn2)cc1C | 8.79% |
| COc1cccc(C(O)c2cnc(C(C)C)n2C)c1 (stereo not shown) | 6.71% |
| COc1cc(C)c(S(=O)(=O)N2CCOCC2)cc1C(C)C | -10.2% |

| Structure (SMILES) | hERG current change (%, negative = inhibition) at 10uM |
| --- | --- |
| CCOC(=O)c1c(NC(=O)CSc2nc3ccccc3c(=O)n2-c2ccc(F)cc2)sc(C(C)=O)c1C | 12.5% |
| Cc1ccc(S(=O)(=O)CCSc2nccn2C)cc1 | 0.605% |
| CCOCCCNS(=O)(=O)c1ccc(Br)cc1 | 18% |
| O=C(COC(=O)c1cc(=O)[nH]c(=O)[nH]1)Nc1cccc(S(=O)(=O)N2CCCCC2)c1 | 16.7% |
| O=C(O)c1ccc(Nc2cccc(F)c2)c([N+](=O)[O-])c1 | 17.7% |
| CSc1nc2c(C)c(C)c(C)c(C)c2[nH]1 | 5.03% |
| Cn1c(=O)c2cn(-c3ccc4c(c3)OCCO4)cc2n(C)c1=O | 11.3% |
| CCOC(=O)C1=C(C)NC(=O)C(C(N)=O)C12CCCC2 (stereo not shown) | 30.1% |
| CC(=O)N1CCN(C(=O)c2cccc(S(=O)(=O)Nc3ccc(C)cc3)c2)CC1 | 23.4% |
| CCCOc1ccccc1OCC(=O)Nc1ccc(S(=O)(=O)N2CCCC2)cc1 | -16.2% |
| O=C(/C=C/c1ccc(OC(F)F)cc1)Nc1cccc(S(=O)(=O)NC2=NCCCCC2)c1 | -39.2% |
| Cc1cc(C)cc(NC(=O)CN2CCC(C(=O)c3ccccc3)CC2)c1 | -48.6% |
| C=CCn1c(CCc2ccccc2)nnc1SCC(=O)OC | 11.9% |
| Cc1cc(C)c(S(=O)(=O)N2CC=C(c3ccccc3)CC2)c(C)c1 | 7.52% |
| COc1ccc(CNC(=O)Cc2nn(C)c(=O)c3ccccc23)cc1 | -14.2% |
| COc1ccc(C(=O)N2CCN(Cc3nc(CC4CC4)no3)CC2)cc1 | -30.7% |
| CNC(=O)C1CC(=O)N(CCc2ccc(OC)c(OC)c2)C(=Nc2ccc(F)cc2)S1 (stereo not shown) | -6.4% |
| CNC(=O)N(O)C1N(/N=C/c2cc(Br)ccc2O)C(=S)SC1(C)C (stereo not shown) | 16.5% |
| N#CCC(=O)Nc1ccc(C(=O)OCC(=O)NNC(=O)c2ccc(Cl)cc2)cc1 | 1.74% |
| CC(=O)C1=C(C)NC(SCC(=O)c2ccccc2)=C(C#N)C1c1ccco1 (stereo not shown) | 3.34% |
| Cc1cccc(C)c1N1C(=O)C2ON(c3ccccc3)C(c3ccncc3)C2C1=O (stereo not shown) | -24.6% |
| COc1ccc(-c2[nH]c(-c3ccc(F)cc3)nc2SCC(=O)NC2CCCC2)cc1 | -15.7% |

| Structure (SMILES) | hERG current change (%, negative = inhibition) at 10uM |
| --- | --- |
| CCOC(=O)N1CCN(C(=O)COc2ccccc2OC)CC1 | 15.2% |
| Cc1ccc(-c2csc3nc[nH]c(=O)c23)c(C)c1 | -6.91% |
| Cc1ccc(S(=O)(=O)Nc2ccccc2C(O)c2ccccc2)cc1 (stereo not shown) | 6.43% |
| CCC(=O)c1ccc(N2CCN(C(=O)c3ccccc3F)CC2)c(F)c1 | -20.7% |
| COc1ccc(NC(=O)CCS(=O)(=O)c2ccc3c(c2)NC(=O)C(C)S3)cc1OC (stereo not shown) | 21.2% |
| CCOc1ccc(NC(=O)c2ccc(CNc3c(NC4CCCCC4)c(=O)c3=O)cc2)cc1 | 13.2% |
| CC(C)(CO)NC(=O)CC1C(=O)NCCN1Cc1ccc(-c2ccccc2)cc1 (stereo not shown) | 6.61% |
| Cc1ccc(-c2cc(C(=O)N(C)Cc3cnn(C)c3C)c3cc(Br)ccc3n2)cc1 | -36.9% |
| O=C(O)c1ccc(Nc2nc3ccccc3nc2NS(=O)(=O)c2cccs2)cc1 | 17.6% |
| O=C(O)c1ccc(-n2cc(C(=O)c3ccccc3O)cn2)cc1 | 19.2% |
| CN(C)C(=S)SCC(=O)Nc1cccc(C(F)(F)F)c1 | -54.6% |
| CCOC(=O)C1(CCOc2ccccc2)CCN(C(C)CSC)CC1 (stereo not shown) | -55.3% |
| CC(C)(C)Nc1cccccc1=O | 4.91% |
| Cn1c(=O)c2c(nc(NCc3ccccc3)n2CC(N)=O)n(C)c1=O | 7.28% |
| C=CCn1c(CSCc2ccc(Cl)cc2)nnc1SCC(=O)NCc1ccccc1 | -38.5% |
| Cc1csc(SCC(=O)Nc2ccc(Cl)cn2)n1 | -5.15% |
| CCC1(c2ccccc2)NC(=O)N(CC(=O)N(C)Cc2c(F)cccc2Cl)C1=O (stereo not shown) | -6.29% |
| O=C(CN1C(=O)NC2(CCOc3ccccc32)C1=O)NCc1ccc(F)cc1 (stereo not shown) | -2.05% |
| CC(=O)C1=C(c2ccccc2)NC(=O)NC1c1ccc(O)c(O)c1 (stereo not shown) | 6.47% |
| Cc1cccc(OCCC(=O)Nc2nnc(C)s2)c1 | 16.4% |
| Cc1cc2nc(-c3ccc(SCC(=O)N4CCN(C(=O)c5ccco5)CC4)nc3)[nH]c2cc1C | 2.64% |
| Nc1nonc1-c1noc(-c2ccccc2Br)n1 | -29.8% |

| Structure (SMILES) | hERG current change (%, negative = inhibition) at 10uM |
| --- | --- |
| Cc1ccc(-n2nc(-c3ccccc3)cc2Nc2ccccc2N)cc1 | 18.9% |
| CS(=O)(=O)N(Cc1ccccc1)c1ccc(C(=O)NN=C2CCCCCC2)cc1 | -7.75% |
| Cc1sc2ncnc(N3CCC(C(=O)N(C)CC(=O)Nc4ccccc4Br)CC3)c2c1C | -65.8% |
| O=C(COC(=O)/C=C/c1ccccc1)NC(=O)NCc1ccccc1 | 1.04% |
| Cc1nn(-c2ccccc2)c(N2CCCC2)c1/C=N/NC(=S)Nc1ccc(F)cc1 | 2.81% |
| CC(=O)N(C)C1=C(O)c2ccccc2C(=O)C1=O | 22.3% |
| CCCCNC(=O)c1onc(CSc2ccc(OC)cc2)c1C(=O)O | -0.549% |
| CC1(C)Cc2c(sc(NC(=O)c3ccc(C(=O)c4ccccc4)cc3)c2C(N)=O)C(C)(C)N1 | 5.78% |
| O=C(/C=C/Nc1ccc(F)c(Cl)c1)c1ccco1 | -0.57% |
| O=C(CCl)N1CCN2C(=O)c3ccccc3C12c1ccc(Cl)cc1 (stereo not shown) | -1.56% |
| COc1ccc(C(C(=O)NCC2CCCO2)N(C(=O)CNC(=O)c2cccs2)c2ccc(C)cc2)cc1OC (stereo not shown) | 4.2% |
| CCOC(=O)Cn1cc(C(=O)C2CC2)c2ccccc21 | -21.7% |
| COc1cccc(COC(=O)C2CCN(S(=O)(=O)c3ccc(C)cc3)CC2)c1OC | 9.16% |
| COC(=O)CSc1n[nH]c(=S)s1 | 13.5% |
| O=C(Nc1ccccc1)Nc1ccc(C(=O)N2CCCC2)cc1 | 2.45% |
| CC(=O)c1ccc(S(=O)(=O)N2CCC(c3nc4ccccc4[nH]3)CC2)cc1 | -54.3% |
| CC1(C)CC(NC(=O)Cc2ccc(Cl)cc2)CC(C)(C)N1 | 12.7% |
| Cc1ccc(S(=O)(=O)C(C#N)c2nc3ccccc3nc2N2CCCC2)cc1C (stereo not shown) | 1.95% |
| Cc1c(/C=N/O)c2ccccc2n1C | 5.39% |
| COCCNCCCCSc1ccc(Cl)cc1 | -50.8% |
| Cc1cccc(C(=O)N[C@H](C(=O)NCCc2ccc(Cl)cc2)C(C)C)c1 | 1.23% |
| Nc1cc(C(=O)OCC(=O)NCCCc2ccccc2)ccc1Cl | 0.466% |
